Experimental data published in PubChem BioAssay AID463173 (ICCB-Longwood Screening Facility, Harvard Medical School, 2010).
The campaign covered roughly 52,000 compounds. About 4,300 (8.3%) were called active. Cut-off read from the data, not from the text of the source: active = survival mostly below about 52% (no sharp cut-off); inactive = mostly above about 56%. The list shows a part of the results.

Test system: DeltatarO mutant
Assay: growth inhibition of S. aureus wild type versus tarO mutant, primary screen, teichoic acid synthesis inhibitors, RN4220, OD600 (AID 463173)
Settings: OD600, 18 h, hits give low values, screened at 18.75 µg/mL (by protocol)

| Compound | survival |
| --- | --- |
| COCCn1nnnc1C(C(C)C)N1CCN(C(=O)c2ccco2)CC1 (stereo not given) | inactive: 103% |
| COc1cc(-c2nnc(SCCOc3cc(C)cc(C)c3)o2)cc(OC)c1OC | inactive: 109% |
| Cc1noc(C)c1S(=O)(=O)N1CCC(C(=O)N2CCN(c3cccc(C(F)(F)F)c3)CC2)CC1 | inactive: 95% |
| CC(C)NC(=O)CCC(=O)N1Cc2ccccc2Oc2ncccc21 | active: 0% |
| CCOC(=O)c1c(C)[nH]c(CCC(=O)Nc2ccc(OC)c(OC)c2)c1C | inactive: 91% |
| C=Cn1c(=N)n(C)c2ccccc21 | inactive: 70% |
| CCC1CCCCN1C(=O)CSc1nc2c([nH]c3ccccc32)c(=O)n1-c1ccc(OC)cc1 (stereo not given) | active: 25% |
| Cc1nc(N2CCCCC2)c(C#N)c2c1COC(C)(C)C2 | inactive: 81% |
| COc1ccccc1NC(=O)CCN1CC(C)CC(C)C1 (stereo not given) | inactive: 61% |
| Cc1ccc(Cn2c(C(C)NC(=O)c3ccccc3)nc3ccccc32)cc1 (stereo not given) | inactive: 90% |
| O=C(NCCCN1CCN(c2ccccc2)CC1)c1ccc2nc(Cc3ccccc3)oc2c1 | inactive: 92% |
| COCCCNC(=O)CCC(=O)NNc1nc2ccccc2c2nc(C)nn12 | inactive: 90% |
| COc1ccc(N2CC(NC(=O)C(c3ccccc3)c3ccccc3)CC2=O)cc1OC (stereo not given) | inactive: 90% |
| CC(C)Oc1ccc(-c2nc3c(C#N)c[nH]n3c2NC2CCCCC2)cc1 | inactive: 58% |
| CC1Cc2ccccc2N1S(=O)(=O)c1nnc(NC(=O)c2ccccc2)s1 (stereo not given) | active: 12% |
| COC(=O)c1nnn(CC(=O)NC(=O)Nc2c(C)cccc2C)c1C(=O)OC | inactive: 85% |
| COc1ccc(C2CC(=O)c3cc(-c4nc(-c5ccc(Cl)cc5)cs4)c(=O)[nH]c3C2)cc1OC (stereo not given) | inactive: 59% |
| Cc1ccccc1C(=O)n1nc(-c2cccnc2)nc1NCc1ccccc1 | inactive: 75% |
| CCCCN(CC)CCCNC(=O)c1nn(C)c2c1CSc1ccccc1-2 | inactive: 99% |
| COc1ccc(OC)c(CCNC(=O)Cn2ncc3c([nH]c4ccccc43)c2=O)c1 | inactive: 99% |
| NS(=O)(=O)c1ccc(NC(=O)C2Cc3ccccc3N2C(=O)c2ccccc2)cc1 (stereo not given) | inactive: 68% |
| CCn1cc(C(=O)N2CCN(c3cccc(C)c3C)CC2)c2cc(OC)c(OC)cc2c1=O | inactive: 180% |
| CCn1cc2nc(SCC(=O)Nc3ccccc3C(F)(F)F)n(Cc3ccc(C)cc3)c(=O)c2n1 | inactive: 105% |

| Compound | survival |
| --- | --- |
| CC(C)Oc1ccc(C(=O)N(Cc2ccco2)Cc2cccs2)cc1 | active: 36% |
| Cc1cc(OCC(=O)N(Cc2ccc(N(C)C)cc2)CC2CCCO2)ccc1Cl (stereo not given) | inactive: 58% |
| N#Cc1cc(C#N)c(SCC(N)=O)nc1N | inactive: 72% |
| Cc1cccc(C)c1NC(=O)c1sc(-n2nc(C)c(Cc3ccccc3)c2C)nc1C | inactive: 76% |
| O=C(CSc1ncc(S(=O)(=O)c2ccc(Cl)cc2)c(=O)[nH]1)Nc1cccc(C(F)(F)F)c1 | inactive: 69% |
| COc1ccc(-c2cc3nc(C)c(CCC(=O)NC4CCCCC4)c(C)n3n2)c(OC)c1 | inactive: 76% |
| COc1ccc(Cn2c(=O)c3cccnc3n(Cc3cccc(F)c3)c2=O)cc1 | inactive: 84% |
| COc1ccccc1CNC(=O)c1ccc2nc(CCc3ccccc3)oc2c1 | inactive: 83% |
| COc1ccc(-c2nc(SCC(=O)Nc3c(C)cc(C)cc3C)n[nH]2)cc1 | inactive: 94% |
| COC(=O)c1ccc(C(=O)OC)c(NC(=O)c2ccc(-c3ccccc3)s2)c1 | inactive: 126% |
| COC(=O)C(CCSC)NC(=O)Cn1ncc2c([nH]c3ccccc32)c1=O (stereo not given) | inactive: 60% |
| CCCOc1ccc(CNC(=O)c2ccc3c(c2)N(Cc2ccccc2)CCS3)cc1 | inactive: 103% |
| COc1cccc2c1cc1c(=O)n(CC(=O)N3CCN(c4cccc(Cl)c4)CC3)nc(C)n12 | inactive: 105% |
| O=C(Nc1ccc2nc(SCCOc3ccccc3)sc2c1)c1ccccc1F | inactive: 93% |
| Cc1ccc(CSC2=Nc3ccccc3C3=NC(CC(=O)NCc4cccs4)C(=O)N23)c(C)c1 (stereo not given) | inactive: 77% |
| COc1ccc(-c2cn3c(n2)sc2cc(C(=O)Nc4cccc(SC)c4)ccc23)cc1 | inactive: 59% |
| Nc1n[nH]c(N)c1N=Nc1ccc(Cl)cc1 | inactive: 64% |
| CCc1ccc(N(CC)C(=O)CCn2cnc3onc(-c4ccc(F)cc4)c3c2=O)cc1 | inactive: 77% |
| CCOC(=O)c1c(C)c(-c2ccccc2)n(CC(=O)Nc2ccc(OCC)cc2)c1C | inactive: 73% |
| Cc1ccc(Cl)cc1N1CCN(C(=O)C2CCN(S(=O)(=O)Cc3ccccc3)CC2)CC1 | inactive: 72% |
| COc1ccccc1-c1noc(-c2ccc(N3CCN(C)CC3)c([N+](=O)[O-])c2)n1 | inactive: 113% |
| O=C(c1ccc(Cl)cc1)N1CCC(c2nc3ccccc3o2)CC1 | inactive: 79% |
| CCOc1ccc(NC(=O)c2c(NCc3ccc(C)o3)sc3c2CCCCC3)cc1 | inactive: 80% |

| Compound | survival |
| --- | --- |
| COCCn1c(SC)nnc1-c1ccccc1 | inactive: 75% |
| CCn1cc(C(=O)OCC(=O)Nc2cc(OC)cc(OC)c2)c(=O)c2ccc(C)nc21 | inactive: 59% |
| Cc1ccc(CNC(=O)CN2C(=O)CSc3ccc(S(=O)(=O)N(C)C)cc32)cc1 | inactive: 99% |
| Nc1ncnc2c1ncn2CC(O)CO (stereo not given) | inactive: 81% |
| O=C(OCc1cc(=O)n2nc(-c3cccs3)sc2n1)c1ccccc1 | inactive: 65% |
| CC(=O)n1nc(-c2cccnc2)nc1NCc1ccc(F)cc1 | inactive: 83% |
| CNC(=O)c1ccccc1Nc1ccc(SC(F)F)cc1 | inactive: 89% |
| COC(=O)c1ccccc1NC(=O)c1ccc(-c2nc(COc3ccccc3)c(C)o2)cc1 | inactive: 102% |
| CCCCc1nn2c(=O)cc(COC(=O)c3cccc(Cl)c3)nc2s1 | inactive: 67% |
| O=C(c1ccccc1)c1cn(Cc2ccc(F)cc2)c2ccccc2c1=O | inactive: 74% |
| Cc1cccc(C)c1NC(=O)Cn1nnc(C(=O)Nc2c(C)cccc2C)c1N | inactive: 91% |
| O=C(CCC1N=C2c3ccccc3N=C(SCc3cccc(F)c3)N2C1=O)NCCc1ccccc1 (stereo not given) | inactive: 83% |
| Cc1cc(OCC(=O)Nc2c(C(=O)c3ccccc3)oc3ccccc23)cc(C)c1Cl | inactive: 95% |
| CC(C)CN(CCCNC(=O)c1cc(-c2cccs2)nc2ccccc12)CC(C)C | inactive: 46% |
| Cc1nn(C)c2c1c(-c1ccccc1)cc(=O)n2Cc1ccccc1C#N | inactive: 134% |
| CCOC(=O)C1CCCN(c2c(C(=O)c3ccc(OCC)cc3)cnc3ccccc23)C1 (stereo not given) | active: -3% |
| CCN1CCN(CCCNC(=O)c2cnn(-c3ccccc3Cl)c2C2CCN(C(=O)OC(C)(C)C)CC2)CC1 | inactive: 118% |
| COc1ccc(-n2ncc(C(=O)Nc3ccc4c(c3)OCO4)c2C2CCN(C(=O)OC(C)(C)C)CC2)cc1 | inactive: 85% |
| Cc1ccc(NC(=O)Cn2cc(S(=O)(=O)Cc3cccc(Cl)c3)c3ccccc32)cc1C | inactive: 74% |
| COc1ccc(C2=C(C)C(=NCCCN3CCN(c4cc(Cl)ccc4C)CC3)NS2(=O)=O)cc1 | inactive: 59% |
| O=C(NCc1ccccc1Br)c1ccc2c(c1)nc1n2CCOC1 | active: -1% |
| Cn1c(-c2ccccc2)cnc1NCc1ccccc1O | active: 46% |
| N#Cc1nc2c(-c3nc4ccccc4s3)c(N)n(Cc3ccccc3)c2nc1C#N | inactive: 91% |

| Compound | survival |
| --- | --- |
| O=C(CCC1N=C2c3ccccc3N=C(SCc3ccccc3F)N2C1=O)NCc1ccccc1 (stereo not given) | inactive: 69% |
| Cc1ccc(CNC(=O)CN2C(=O)CSc3c2c(C)nn3-c2ccccc2)cc1 | inactive: 89% |
| COc1ccc(C)cc1NC(=O)CCNC(=O)Cn1ccc2ccccc2c1=O | inactive: 63% |
| COc1ccc(NC(=O)c2oc3ccccc3c2NC(=O)Cc2coc3cc(C)ccc23)cc1 | inactive: 70% |
| CCOC(=O)c1c(C)[nH]c(CCC(=O)NCc2cccc(C)c2)c1C | inactive: 70% |
| COCCCn1c(=N)c(C(=O)NCc2cccnc2)cc2c(=O)n3cccc(C)c3nc21 | inactive: 62% |
| CN1C(=O)Cc2cc(S(=O)(=O)CCC(=O)Nc3ccc(Cl)c(C(F)(F)F)c3)ccc21 | inactive: 91% |
| Cc1ccccc1NS(=O)(=O)c1ccc2[nH]cc(C(=O)NC3CCCCC3)c(=O)c2c1 | inactive: 85% |
| COc1cccc(-c2noc(COc3ccc(C(C)(C)C)cc3)n2)c1 | inactive: 88% |
| Cc1ccc(NC(=O)c2oc3ccc(S(=O)(=O)N4CCCCCC4)cc3c2C)c(C)c1 | inactive: 124% |
| CC1(C)c2ssc(=S)c2-c2ccccc2N1C(=O)CSC#N | inactive: 106% |
| CCn1c(=O)c2cc(C(=O)NC3CCC(C)CC3)sc2c2ccccc21 (stereo not given) | inactive: 75% |
| CC(C)/C=N/NC(=O)c1ccc2c(c1)NC(=O)C(C)(C)O2 | inactive: 85% |
| COC(=O)C(NC(=O)c1ccccc1)=C1C=C(C)OC(C)=C1 | inactive: 98% |
| CN(C(=O)c1cc2c(Cl)nc3ccccc3c2s1)c1cccc(C(F)(F)F)c1 | inactive: 72% |
| COc1cccc(NC(=O)N(Cc2c[nH]c3ccccc23)C2CCCCCC2)c1 | inactive: 46% |
| CCn1c(C(=O)Nc2c(C)cccc2C)cc2sc(Cl)cc21 | active: 60% |
| O=C(Cn1nc(-c2ccccc2)c2c(c1=O)CCCC2)Nc1ccc(F)c(Cl)c1 | active: 23% |
| CCOC(=O)c1c(C)oc2nc(C)nc(N3CCN(c4cc(Cl)ccc4C)CC3)c12 | inactive: 96% |
| CCOC(=O)c1cc(OC(=O)c2cc(OC)c(OC)c(OC)c2)n(-c2ccccc2)n1 | active: 54% |
| CCc1ccccc1N(C)C(=O)Cn1cnc2sc(C)c(S(=O)(=O)N3CCC(C)CC3)c2c1=O | inactive: 71% |
